Test results taken from PMC12136788.
This is one part of the list.

T1: UNK ZnF1-3 (human, UniProt Q9C0B0 31-174)
T1 sequence: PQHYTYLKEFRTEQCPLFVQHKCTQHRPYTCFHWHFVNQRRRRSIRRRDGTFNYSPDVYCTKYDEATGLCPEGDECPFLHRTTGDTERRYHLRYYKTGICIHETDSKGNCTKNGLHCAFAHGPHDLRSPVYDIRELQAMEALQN

B1: chr17:45761549:45761550:+_ENSG00000108424_ENST00000290158|hu_hu|FALSE|FALSE (ssRNA)
RNA: GGGAGUUCUACAGUCCGACGAUCGACAUGGAAGGGAGGAUAUAAACGAGGAGUUGGAGAAAAACGCAAGCCCAGUUUUUGCUAGAGUGGAAAUGAAAGUGGGAAUGAGGGUCUUGUUUUUAGUCCUCUAAGGACCAGGAAGCACAACAGAGGAUUGAGCAUCA
B2: chr14:90871201:90871202:+_ENSG00000198668_ENST00000553542|hu_mus|motif|central (ssRNA)
RNA: GGGAGUUCUACAGUCCGACGAUCCGACCAAUACAUGCAGACUUUGUGUGUGGACAGAGGGGCUUCUGACAUUCAGCUUCGCGGGAUACAAACAGAAUGAAGAAAUGAACUUUUUCUUUUUUUUUCUUUUUUUUGUAAGAGGUACAACAGAGGAUUGAGCAUCA
B3: chr5:77712431:77712432:+_ENSG00000085365_ENST00000538629|hu_hu|motif|central (ssRNA)
RNA: GGGAGUUCUACAGUCCGACGAUCCCAAUUAUUUUUUCUACCAUGUUGACUGAGGUUUUGCAUUUCUCGUUCCCGACGAUCGGAUUCUGCGGCUUUUCUUUCUAGUUCUUCCUGGCGCUUAAGAAGUUCAGCUUGGGCCAAUGCCAACAGAGGAUUGAGCAUCA
B4: 136387362_136387482_376_3pUTR_ENSMUSG00000051391_ENSMUST00000055808|mouse|control|control (ssRNA)
RNA: GGGAGUUCUACAGUCCGACGAUCGACCAUCUCGAUCUUCUUCUCGUUGCCGUCCGCAGACGUCUUCUGCUCGAUGCUGCUGAUGACCCUCCAGGAGGAGCGGCGAGCCCCCACCACGUUCUUGUAGGCCACCGACAGGAGGUUCAACAGAGGAUUGAGCAUCA
B5: 94933556_94940741_412_3pUTR_ENSG00000117528_ENST00000370214|human|control|control (ssRNA)
RNA: GGGAGUUCUACAGUCCGACGAUCGCUCAUUUAACCCAUACUUCAAGAAGUUAUUAACCAGAGAGAUAAGAGGCAUGGCAGCGAUGAAGUUGAGUAAGUAUCUCUUGAAAUCUUUCCUGCUACGACCAAUGAUACCACUUUCAACAACAGAGGAUUGAGCAUCA
B6: chr7:71034872:71034873:-_ENSMUSG00000052040_ENSMUST00000063694|mus_hu|FALSE|FALSE (ssRNA)
RNA: GGGAGUUCUACAGUCCGACGAUCCAUCAAAAUAGGUACUCAUCAAAACAGGUAUCUCUGGCAAGAUACCCUGAGUCCACCCCAAUCCCCCCACCCCCCCCAACACACGCGUGUGUGCUCACGCGCGCACACACCCACACGCACCAACAGAGGAUUGAGCAUCA
B7: chr7:56126124:56126125:+_ENSG00000146731_ENST00000540286|hu_hu|FALSE|FALSE (ssRNA)
RNA: GGGAGUUCUACAGUCCGACGAUCUUGAUUAAUAACAACAAAUCCUUUAUCUGAAUCGCCACAGACUUUCCUUUUCAGUUCUAUUAUUUUUUUAACCCUAUCUUCAAUGAAUUUUCUUUCAGCUUUCACGAGUUUUUCUCUCUCCAACAGAGGAUUGAGCAUCA
B8: chr4:144460044:144460045:+_ENSG00000153147_ENST00000283131|hu_mus|hu_hu_hu_mus_False|68_68 (ssRNA)
RNA: GGGAGUUCUACAGUCCGACGAUCACGGUCCAUAGCCUGAAGAUCAACUUGCGGAUUCCAAUCUGAGUCAUACAAAAUGACUACAUCAGCAGUUGCAAGAUUGAUGCCCAGACCACCAGCACGUGUGCUUAGCAUAAAUACAAACAACAGAGGAUUGAGCAUCA
B9: chr4:148554787:148554788:-_ENSMUSG00000063077_ENSMUST00000060537|mus_hu|motif|central (ssRNA)
RNA: GGGAGUUCUACAGUCCGACGAUCUCUCAGCACAAGAAAAAAGAAAAGAGUACAGAGCAAUGGAGAUGGGGAACGGGAGAGCGGGAAAAGUGCUGGACAAGGAGGGAGAAGUAGUUAAGCCACAGGAUUACAUACAAGAGUCACCAACAGAGGAUUGAGCAUCA
B10: 27475716_27475836_1197_3pUTR_ENSMUSG00000021877_ENSMUST00000022429|mouse|control|control (ssRNA)
RNA: GGGAGUUCUACAGUCCGACGAUCAUGAUAAAGGUCUCAGUAAAGUAUCAAGGGAAUAACUUUAAAACAUUAUUGUUUUGGGCUCAAAAACCACUCAGAUCUGUCUAAAGGUGUCAGGAUAGCUCUGUAUCCAGGCAUUUAGGUCAACAGAGGAUUGAGCAUCA
B11: chr11:47074021:47074022:+_ENSG00000149179_ENST00000278460|hu_hu|motif|central (ssRNA)
RNA: GGGAGUUCUACAGUCCGACGAUCGCCAUUUUUGCCCACAGUUCGGAAGCAUCUCCAGAAGGCCCGUAAAAAUGAUACCCGGUUGUGGGGGGUGGCUUGGACGAAGCUGAAUUCUCGAAAGAGAAUGUGUGUUCCCUGGCAUACCAACAGAGGAUUGAGCAUCA
B12: chr4:95202638:95202639:+_ENSG00000163104_ENST00000354268|hu_hu|FALSE|FALSE (ssRNA)
RNA: GGGAGUUCUACAGUCCGACGAUCUAAUAGAACCUCUAAGAUAUCCAGCAUCAUGGUAAAUUGGCUAAAUAACACAACUCUAUCACCCUUCUGUUUCAAUUCAGACAAGAUGCAUCCUAAAACUCGAAAUUUUCCAGAAUCUAACAACAGAGGAUUGAGCAUCA
B13: chr12:493273:493274:-_ENSG00000073614_ENST00000399788|hu_mus|hu_hu_hu_mus_False|38_88 (ssRNA)
RNA: GGGAGUUCUACAGUCCGACGAUCUUUUCUCUCCACCACAGGGAUCUUCAGAGUAGAUCCUUGAAGUUCCCAAAAUUUUGCCAGUUGAUCCAAGAAGUCCAAUCUCACUCUAGUCAUUGCCUCAAGUUCAUUCAGGCGCUGGACCAACAGAGGAUUGAGCAUCA
B14: chr6:15520614:15520615:+_ENSG00000008083_ENST00000341776|hu_hu|motif|central (ssRNA)
RNA: GGGAGUUCUACAGUCCGACGAUCUUUUCUAAGUACAAAAAAAAGUUCAACAGUUUAAUGCUAAAACAAAAUUAGUUCUCGGAAACCAGAAGAAAAUCUUCUUUAGAGCUAGUGCAAAGACAGCUUGAAUCCUACAGCAAGUACCAACAGAGGAUUGAGCAUCA
B15: chr12:76570751:76570752:-_ENSMUSG00000021051_ENSMUST00000021447|perfect_dup|motif|central (ssRNA)
RNA: GGGAGUUCUACAGUCCGACGAUCUGUUUCAUAAACAAACCUUAGAAAAAUAUUGUUAAUCUGUUUUCGGAUAAAUGCUCGGAGACCAAGAAACUUGCCAUAAAUUCUGUGUAAGACUGUUUUUAAGUAGUCCCGUUCCCGAGGCAACAGAGGAUUGAGCAUCA
B16: chr9:58050066:58050067:-_ENSMUSG00000051243_ENSMUST00000163897|mus_mus|FALSE|FALSE (ssRNA)
RNA: GGGAGUUCUACAGUCCGACGAUCGGGACCUGCUGAACUGCGCUGCCUGGCUCUCCCGGACCCUUUUCCUCCUGCCGCCUGCUAGCCUCCCCCUCCCCGAAGCUUCGUUCAACACGAUGCAUAAUUGAUAGUGUUAGCAGAACGCAACAGAGGAUUGAGCAUCA
B17: chr14:57521723:57521724:+_ENSMUSG00000021945_ENSMUST00000022511|mus_hu|FALSE|FALSE (ssRNA)
RNA: GGGAGUUCUACAGUCCGACGAUCUACAGGUUCGAUAAAAACAACAUCAUCAUCAUCUUCCACUGACGAGUUCUGAAACUUAUUAGAUCUAGACACUAAAGGAUUAGCUGGACCACUAAAUGAGUUUCCUACAUUCGUGAGACUCAACAGAGGAUUGAGCAUCA
B18: chr17:35253193:35253194:-_ENSMUSG00000024387_ENSMUST00000025246|mus_hu|FALSE|FALSE (ssRNA)
RNA: GGGAGUUCUACAGUCCGACGAUCCCUUUUCUUCUACUUUAUUUCAUAUUCCCACCACGAUAACGACUCCUUUAAUUUAAACUAAAAACCAUACAGGGUUCCUGAAAGGGUGGCAAAAAAGAAAGGAAAAGUCAAAGACUGCAGCAACAGAGGAUUGAGCAUCA
B19: chr2:9570881:9570882:+_ENSG00000119203_ENST00000238112|hu_mus|hu_hu_hu_mus_False|58_108 (ssRNA)
RNA: GGGAGUUCUACAGUCCGACGAUCACUUGUCUUCUGUAGGAACCAGGGCAGGGCUCCACAGUGAUCCAAAUGGAAAUGACUAAUUAACAGAAGGUCGAUCUCAGCUGGGUCGAUAAGGUCAAUGUAAGGAAGGGCAUCCAUUCCCAACAGAGGAUUGAGCAUCA
B20: chr12:39763582:39763583:-_ENSG00000139116_ENST00000544797|hu_mus|hu_hu_hu_mus_False|1_88 (ssRNA)
RNA: GGGAGUUCUACAGUCCGACGAUCCUCUAGGAACUGGGCAUUCACUUUAAAAUCUGGAGGGGGCAGCCCGUUUUUAAUCGCUGAGGUCUUUUUCUCAUCAAUACUCUUGAACAGGUGUCUAACAGCACGAGAGAUGAUACCCAGCAACAGAGGAUUGAGCAUCA
B21: 5780615_5780735_1026_CDS_ENSG00000011275_ENST00000425013|human|control|control (ssRNA)
RNA: GGGAGUUCUACAGUCCGACGAUCUAGUAGUUCAACGAGCUCUUGAUCUACCUCUGCAGCUUCUUGCCCCCAAAUGUUUUCCAAAUUGGGCUCUUGAGAUUCUUGCAUUGGAAAGGCUGGACCUGGCUCUUCAUCAUCACUUGCCAACAGAGGAUUGAGCAUCA
B22: chr8:117878989:117878990:-_ENSG00000164754_ENST00000297338|hu_hu|hu_hu_hu_mus_True|8_18 (ssRNA)
RNA: GGGAGUUCUACAGUCCGACGAUCCCAGAGGCCCUCGUUUACUGAGGACAAAAUGUGCGUAGAACAUUUUUCUUAUUUGCUAUGAAAUAAGAAGAAACCUGGAUCUCGGCGGGGAGCUUGGGCGGGCUGGGUGGCCCGGGAGGGCAACAGAGGAUUGAGCAUCA

What follows are binders tested against T1, UNK ZnF1-3 (assay: nsRBNS (natural sequence RNA bind-n-seq); RBNS binding buffer (assumed for nsRBNS): 25 mM Tris pH 7.5, 150 mM KCl, 3 mM MgCl2, 0.01% Triton X-100, 500 ug/ml BSA, 20 U/ml SUPERase-In, 4 C; UNK is unkempt and MSI1 is Musashi-1; names of the RNAs are library labels; protein concentration not given here; high values mean tight binding).
Binder B1 has a binding signal of 2.36 enrichment R. Work on B2 yielded a binding signal of 1.36 enrichment R. Binder B3 has a binding signal of 0.319 enrichment R. Work on B4 yielded a binding signal of 0.701 enrichment R. With B5 the binding signal was 1.56 enrichment R. B6 showed a binding signal of 1.64 enrichment R. Binder B7 has a binding signal of 0.518 enrichment R. With B8 the binding signal was 0.906 enrichment R. Work on B9 yielded a binding signal of 2.83 enrichment R. Work on B10 yielded a binding signal of 0.77 enrichment R. B11 gave a binding signal of 1.86 enrichment R. With B12 the binding signal was 1.24 enrichment R. With B13 the binding signal was 0.988 enrichment R. Work on B14 yielded a binding signal of 0.986 enrichment R. For B15, the binding signal was 1.29 enrichment R. With B16 the binding signal was 1.19 enrichment R. B17 was tested, and the binding signal was 0.739 enrichment R. With B18 the binding signal was 1.65 enrichment R. B19 was tested, and the binding signal was 1.26 enrichment R. B20 showed a binding signal of 1.28 enrichment R. B21 gave a binding signal of 0.835 enrichment R. With B22 the binding signal was 1.12 enrichment R.
